In all, about 360,000 compounds went through this assay and about 16,000 (4.4%) were called active. Inconclusive results, whose numbers are uncertain, are shown with a selection of clear calls. The call rests on the fitted dose curve; in most records, active means well fitted inhibition curve with a large enough effect; inconclusive means small, poorly fitted or top-dose-only effect; inactive means no such curve, though single readings can be large or run the other way. Where the call is inconclusive, the potency comes from a doubtful curve fit.
target: Bromodomain adjacent to zinc finger domain protein 2B (Homo sapiens) (UniProt Q9UIF8); experiment: qHTS Assay for Inhibitors of BAZ2B; conditions: AlphaScreen BAZ2B-H3K14Ac peptide displacement; activity change, negative = inhibition: at 114 µM (top of the series); further: nearly all actives have a fitted effect of over 60% in size
How it was run: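 BAZ2B 50 nM plus b-H3(5-23)K14Ac 50 nM, PBS pH 7.4/0.01% Tween-20, 30 min RT; compound added (max 110 uM), 30 min RT; streptavidin donor/Ni-chelate acceptor beads 10 ug/mL final, 20 min dark; AlphaScreen read.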
On the % scale 0 is the no-effect control and ±100 the full control effect; potency means the concentration at half of the fitted maximal effect; tags describe the fitted curve by direction and shape.

Chain of UniProt Q9UIF8 (Q9UIF8 whole entry, looked up, the tested form may be a part): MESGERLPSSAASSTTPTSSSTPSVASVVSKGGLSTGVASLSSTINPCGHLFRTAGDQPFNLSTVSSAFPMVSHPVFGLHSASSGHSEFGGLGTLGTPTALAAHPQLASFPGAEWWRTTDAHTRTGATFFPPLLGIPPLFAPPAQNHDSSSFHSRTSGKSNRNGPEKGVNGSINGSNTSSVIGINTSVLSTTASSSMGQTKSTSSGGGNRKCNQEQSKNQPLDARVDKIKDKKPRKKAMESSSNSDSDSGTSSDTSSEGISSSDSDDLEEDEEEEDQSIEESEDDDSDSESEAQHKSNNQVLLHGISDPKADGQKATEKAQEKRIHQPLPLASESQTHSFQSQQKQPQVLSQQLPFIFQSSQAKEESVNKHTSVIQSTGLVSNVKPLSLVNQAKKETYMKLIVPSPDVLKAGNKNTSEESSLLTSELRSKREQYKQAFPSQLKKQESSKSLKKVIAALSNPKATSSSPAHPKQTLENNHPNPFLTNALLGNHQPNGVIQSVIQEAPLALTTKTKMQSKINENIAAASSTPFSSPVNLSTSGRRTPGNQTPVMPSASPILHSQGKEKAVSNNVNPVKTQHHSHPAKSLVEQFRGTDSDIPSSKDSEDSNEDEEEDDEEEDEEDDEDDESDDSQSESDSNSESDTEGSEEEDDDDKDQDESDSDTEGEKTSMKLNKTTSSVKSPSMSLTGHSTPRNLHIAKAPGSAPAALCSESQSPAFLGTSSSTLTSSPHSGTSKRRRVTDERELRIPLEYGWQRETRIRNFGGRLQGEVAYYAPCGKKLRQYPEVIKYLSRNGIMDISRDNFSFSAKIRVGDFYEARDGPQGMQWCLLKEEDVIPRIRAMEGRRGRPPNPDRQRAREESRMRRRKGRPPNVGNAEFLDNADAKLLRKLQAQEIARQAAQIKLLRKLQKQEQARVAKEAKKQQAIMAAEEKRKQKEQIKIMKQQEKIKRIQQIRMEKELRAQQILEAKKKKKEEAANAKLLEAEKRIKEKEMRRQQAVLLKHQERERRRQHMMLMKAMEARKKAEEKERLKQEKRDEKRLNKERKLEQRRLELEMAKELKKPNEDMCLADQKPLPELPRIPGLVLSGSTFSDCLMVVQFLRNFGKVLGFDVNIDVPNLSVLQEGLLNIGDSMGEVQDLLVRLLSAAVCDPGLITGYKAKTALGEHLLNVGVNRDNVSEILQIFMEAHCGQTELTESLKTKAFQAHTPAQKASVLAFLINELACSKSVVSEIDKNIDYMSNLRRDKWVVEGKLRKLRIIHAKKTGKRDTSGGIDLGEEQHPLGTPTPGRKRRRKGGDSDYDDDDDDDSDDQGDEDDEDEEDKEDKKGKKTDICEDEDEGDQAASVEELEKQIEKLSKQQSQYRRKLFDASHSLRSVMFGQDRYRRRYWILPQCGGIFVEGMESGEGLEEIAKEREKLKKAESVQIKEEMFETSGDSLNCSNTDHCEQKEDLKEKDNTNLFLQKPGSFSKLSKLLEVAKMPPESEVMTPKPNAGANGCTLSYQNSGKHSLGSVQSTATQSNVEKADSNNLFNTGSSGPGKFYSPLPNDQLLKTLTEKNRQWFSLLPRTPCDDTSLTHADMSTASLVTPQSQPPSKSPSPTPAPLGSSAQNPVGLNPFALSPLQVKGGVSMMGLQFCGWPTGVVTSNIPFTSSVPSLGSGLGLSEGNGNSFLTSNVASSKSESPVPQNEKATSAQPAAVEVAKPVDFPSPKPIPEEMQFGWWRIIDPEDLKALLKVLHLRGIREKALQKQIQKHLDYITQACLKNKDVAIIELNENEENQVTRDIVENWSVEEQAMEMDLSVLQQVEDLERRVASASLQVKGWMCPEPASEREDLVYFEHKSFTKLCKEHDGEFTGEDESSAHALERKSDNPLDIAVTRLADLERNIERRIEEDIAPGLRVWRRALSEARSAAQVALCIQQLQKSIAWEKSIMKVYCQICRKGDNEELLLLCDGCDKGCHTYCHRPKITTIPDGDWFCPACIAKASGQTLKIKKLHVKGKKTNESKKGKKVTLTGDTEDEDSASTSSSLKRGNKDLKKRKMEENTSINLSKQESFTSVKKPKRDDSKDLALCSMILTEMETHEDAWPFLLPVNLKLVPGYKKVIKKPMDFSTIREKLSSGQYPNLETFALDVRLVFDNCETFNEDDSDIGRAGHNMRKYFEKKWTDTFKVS

| SMILES | Potency | activity change, negative = inhibition |
| --- | --- | --- |
| COc1ccc(CCn2c(-c3ccc(Cl)cc3)n[nH]c2=S)cc1OC | inconclusive: 89.1 µM [inhibitor, partial curve] |  |
| CCc1nnc(NCC(=O)N2CCc3ccccc32)s1 | inconclusive: 79.4 µM [inhibitor, partial curve] |  |
| O=C1CSC(=S)N1/N=C/c1ccc(O)c(O)c1O | active: 2.82 µM |  |
| COc1cccc(CNC(=O)Cc2csc3nc(-c4ccccc4)cn23)c1 | inconclusive: 79.4 µM [inhibitor, single point] |  |
| Cc1cccc(Nc2nc(-c3sc(C)nc3C)cs2)c1 | inconclusive: 44.7 µM [inhibitor, partial curve] |  |
| O=C(O)C1C2CCC(O2)C1C(=O)NCc1ccccc1Br (centres undefined) |  | inactive: -0.546% |
| O=C(NCc1ccc(Cl)cc1)C1CCN(C(=O)Cc2ccccc2)CC1 | active: 50.1 µM |  |
| O=C(c1cc(-c2ccco2)nc2ccccc12)N1CCCC(C(F)(F)F)C1 (centres undefined) | active: 50.1 µM |  |
| Oc1nc(-c2ccc(Cl)cc2)n2ccncc12 | active: 79.4 µM |  |
| Cc1nc2ccc(N=NC3=C(O)CC(C)(C)CC3=O)cc2s1 | inconclusive: 79.4 µM [inhibitor, single point] |  |
| COc1ccccc1N(C)S(=O)(=O)c1ccc(C(=O)OCC(=O)NCc2ccco2)cc1 | inconclusive: 70.8 µM [inhibitor, single point] |  |
| CC1CN(S(=O)(=O)c2ccc(C(=O)Nc3ccc(S(=O)(=O)Nc4ncccn4)cc3)cc2)CC(C)O1 (centres undefined) |  | inactive: 8.09% |
| CC1=NN(c2ccccc2)C(=O)/C1=C/c1ccc(Cl)cc1 | inconclusive: 35.5 µM [inhibitor, full curve] |  |
| COc1ccc(OC)c(C(=O)CSc2nc3ncccc3[nH]2)c1 |  | inactive: -33.5% |
| COc1ccc(CN2CCC(N(CCc3ccccc3)Cc3ccccc3)CC2)c(OC)c1 | active: 39.8 µM |  |
| COc1ccc(C)cc1NC(=O)C/C(C)=N/NC(=O)Cc1cccc2ccccc12 | inconclusive: 70.8 µM [inhibitor, single point] |  |
| Cc1ccc(NN=C2c3ccccc3-c3ccccc32)cc1 | inconclusive: 39.8 µM [inhibitor, partial curve] |  |
| Oc1ccc(N=C/C=C/c2cccc(Br)c2)cc1-c1nc2ccccc2s1 | inconclusive: 79.4 µM [inhibitor, single point] |  |
| O=C(OC[C@H]1O[C@@H](OC(=O)c2cc(O)c(O)c(OC(=O)c3cc(O)c(O)c(O)c3)c2)[C@H](OC(=O)c2cc(O)c(O)c(OC(=O)c3cc(O)c(O)c(O)c3)c2)[C@@H](OC(=O)c2cc(O)c(O)c(OC(=O)c3cc(O)c(O)c(O)c3)c2)[C@@H]1OC(=O)c1cc(O)c(O)c(OC(=O)c2cc(O)c(O)c(O)c2)c1)c1cc(O)c(O)c(OC(=O)c2cc(O)c(O)c(O)c2)c1 | active: 0.794 µM |  |
| Nc1nc(NC(=O)c2cccnc2)nn1-c1ccccc1 | active: 79.4 µM |  |
| COc1ccc(-n2cc(CNC(C)c3ccncn3)c(-c3cccc(F)c3)n2)cc1 (centres undefined) | inconclusive: 79.4 µM [inhibitor, single point] |  |
| CC(C)Nc1nc(NC(C)C)nc(C(=O)OCCO)n1 | active: 35.5 µM |  |

| SMILES | Potency | activity change, negative = inhibition |
| --- | --- | --- |
| Cc1ccc(NC(=O)CSc2cn(CC(=O)N3CCOCC3)c3ccccc23)cc1Cl | inconclusive: 79.4 µM [inhibitor, single point] |  |
| O=C(Nc1ccc(Oc2ccc(C(=O)O)c(C(=O)O)c2)cc1)c1cccs1 |  | inactive: -5.94% |
| O=C(c1cc2c([nH]c1=O)CCCC2)N1CCc2c([nH]c3ccccc23)C1c1ccccc1F (centres undefined) | inconclusive: 50.1 µM [inhibitor, partial curve] |  |
| O=C(CSc1nncc2ccccc12)Nc1cccc(C(=O)O)c1 | inconclusive: 89.1 µM [inhibitor, single point] |  |
| Cc1ccc(N/N=C(/Sc2nnnn2-c2ccccc2)C(=O)c2ccccc2)cc1 | inconclusive: 39.8 µM [inhibitor, full curve] |  |
| CC(C)NC(=O)c1cc(-c2ccco2)nn1-c1ccc(Cl)cc1 | active: 50.1 µM |  |
| O=C(Cn1cnc2ccccc2c1=O)c1ccc2c(c1)OCCO2 | inconclusive: 89.1 µM [inhibitor, single point] |  |
| CCOc1ccc(CNC(=O)Nc2ccc3c(c2)N(C)C(=O)c2ccccc2S3)cc1 | inconclusive: 79.4 µM [inhibitor, single point] |  |
| CCN(CCn1cccn1)C(=O)CCc1nnc(C2(c3ccc(Cl)cc3)CCC2)o1 |  | inactive: -12.4% |
| Nc1c(C(=O)c2ccco2)oc2ccccc12 | inconclusive: 56.2 µM [inhibitor, partial curve] |  |
| CCCC(C)c1nnc(NC(=O)C2CCCO2)s1 (centres undefined) |  | inactive: -1.37% |
| Cc1[nH][nH]c(=O)c1N=Nc1ccccc1 | inconclusive: 79.4 µM [inhibitor, single point] |  |
| CCOC(=O)c1cc(-c2ccco2)nn1-c1ccc(C)cc1 | inconclusive: 56.2 µM [inhibitor, partial curve] |  |
| O=C(c1ccc(Cl)cc1Cl)N1CCN(c2ccc(N3CCOCC3)nn2)CC1 | inconclusive: 89.1 µM [inhibitor, single point] |  |
| c1ccc(Sc2cccc3ccccc23)c(CNC2=NCCN2)c1 | inconclusive: 50.1 µM [inhibitor, partial curve] |  |
| O=C(Cc1ccccc1)Nc1ncccn1 | inconclusive: 89.1 µM [inhibitor, single point] |  |
| COc1cc2c(cc1OC)-c1cc(N3CCCc4ccccc43)nc(=O)n1CC2 | inconclusive: 89.1 µM [inhibitor, single point] |  |
| COC(=O)Cc1n[nH]c(=S)[nH]c1=O |  | inactive: -34.2% |
| CC(=O)Nc1sc2c(c1C(c1cccc(Cl)c1)N1CCN(CCO)CC1)CCCC2 (centres undefined) | inconclusive: 50.1 µM [inhibitor, partial curve] |  |
| CSc1ccc(NC(=O)NCCCN2CCN(c3ccccc3F)CC2)cc1 | inconclusive: 15.8 µM [inhibitor, full curve, poor fit] |  |
| CC(C)c1ccc(-c2nc3c([nH]2)c(=O)n(C)c(=O)n3C)cc1 |  | inactive: 11.1% |
| CCOc1ccc(-c2nnc(SCC(=O)Oc3ccccc3)o2)cc1 | inconclusive: 89.1 µM [inhibitor, single point] |  |

From PubChem BioAssay AID504333 (National Center for Advancing Translational Sciences (NCATS), 2011)
